The text below walks through data of the RNAGym collection of RNA variant scans (doi:10.1093/nar/gkz1192).

Read counts are not given, so values of variants with three or more changes are uncertain.

B1: CPEB3 Ribozyme (parent)
chain: UAACAGGGGGCCACAGCAGAAGCGUUCACGUCGCAGCCCCUGUCAGAUUCUGGUGAAUCUGCGAAUUCUGCUGUAUAUCUC

The variants in the data set derive from B1. In words: self-cleavage, relative activity (ratio to wild type); higher = more cleavage; in vitro, sequencing. An outline of the steps:
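CPEB3 self-cleaving ribozyme mutant libraries were made by rounds of error-prone PCR, barcoded, and transcribed in vitro with T7 RNA polymerase for 5 hours at 37°C. Cleavage occurred during transcription and a 15 min DNase I step before EDTA stop. RNAs were reverse transcribed with template switching and Illumina-sequenced, with DNA sequencing mapping barcodes to variants. Relative activity is the variant's cleaved/total read fraction divided by wild type's (minimum 5 reads), averaged across three batches.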
As to UAACAAGGGGCCACAGCAGAAGCGUUCACGUAGCAGCCCCUGUCGGAUUCUGGUGAAUCUGCGAAUUCUGCUGUAUUUCUC [G6A C32A A45G A77U], the self-cleavage is 0.
Under UAACAAGGGGCCACAGCAGAAGCGAUCACGUCGCAGCCCCUGUCAGAUUCUGGUGAGUCUGCGAAUUCUGCUGUAUAUCUC [G6A U25A A57G] stands 0.26; under UAACAAGGGGCCACAGCAGAGGCGACCACGCCGCUGCCCCUGUCAGAUUCUGGUGAAUCUGCGGAUUCUGCUGUAUAUCUC [G6A A21G U25A U26C U31C A35U A64G], 0.04; under UAACAAGGGGCCACAGCAGAAGCGUUCACGUCGCCGCCCCUGUCGGACUCUGGUGAUUCUGCGAGUUCUGCUGUAUAUCUC [G6A A35C A45G U48C A57U A65G], 0.1.
In the case of UAACAAGGGGCCACAGCAGUGGCGUUCACGUCGCAGCCCGUGUCAGAUUCUGGUGAAUCUGCGAAUUCUGCUGUAUGUCUC [G6A A20U A21G C40G A77G], the self-cleavage came to 0.22.
Then UAACAAGGGGCCACAGCAGAAGCGUUCACGUCGCAGCCCCUGUCAGAUUCUGAUGAAUCUGCGAAUUCGGCUGUAUAUCAC [G6A G53A U69G U80A], with 0.09; and UAACAAGGGGCCACAGCAGAAGCGUUUACGUCGCAGCCCCUGUCAGACUCUGGUGAAUCUGCGAAUUCUGCUGUAUAUCUC [G6A C27U U48C], with 0.4; and UAACAAGGGGCCACAGCAGAAGCGUUCGCGUCGCAGCCCCUGUCAGAUUCUGGUGAAUCUGCGAACCCUGCUGUAUAUCUC [G6A A28G U66C U67C], with 0.17.
Regarding UAACAAGGGGCCACAGCAGAAGCGUUCACGUCGCAGCCCAAGUCAGAUUCUGGUGAAUCUGCGAAUUCUGCUGUAUAUCUC [G6A C40A U41A], the self-cleavage turned out to be 0.08.
With UAACAAGGGGCCACAGCAGAAGCGUUCUCGUCGCAGCCCCUGUCAGAUUCUAGUGAAUCUGCGAAUUCUGCUGUAUAUCUC [G6A A28U G52A], the self-cleavage is 0.13.
Under UAACAAGGGACCACAGCAGAAGCGUUCACGCCGCAGCCCCUGUCAGAUUCUGGUGAAUCUGCGAAUUCUGCUGUAUAUCUC [G6A G10A U31C] stands 0.07.
Then UAACAAGGGGCCACAGAAGAAGCGUUCACGUCGCAGCCCCCGUCAGAUUCUGGUGAAUCUGCGGAUUCUGCUGUGCAUCUC [G6A C17A U41C A64G A75G U76C], with 0.16.
With UAACAAGGGGCCACAGCAGAAGCGUUCACGUCGCAGCCCCUGUCGGAUUCUGGUGAAUCAGCAAAUUCUGCUGUAUAUCAC [G6A A45G U60A G63A U80A], the self-cleavage turned out to be 0.06.
Then UAACAAGGGGCCACAGCAGAGGCGUUCACGUCGCGGCCCCUGACAGAUUCUGGUGCAUCUGCGAAUUCUGCUGUAUGUCCC [G6A A21G A35G U43A A56C A77G U80C], with 0.06; and UAACAAGGGGCCACAGCAGAGGCGUUCACGUCGCAGCCCCUAUCAGAUUCUGGUGAAUCUGCGAAUUCUGCCGUAUAUCUC [G6A A21G G42A U72C], with 0.32.
Under UAACAAGGGGCCACAGCAGAAGCGUUCACGUCGCAGCCCCUGUCAGAUUCUGGUGUAUCAGCGAAUCCUGCUGUAUGUCUC [G6A A56U U60A U67C A77G] stands 0.05; under UAACAAGGGGCCACAGCAGAGGCGUACGCGUCGCAGCCCCAGUCAGAUUCUGGUGUAUCUGCGGAUUCUGCUGUAUAUCUC [G6A A21G U26A A28G U41A A56U A64G], 0.39; under UAACAAGGGGCCACAGCAGAAGCGUUCCCGUCGCAGCCCCUGUCAGAUUAUGGUGAAUCUGCGGAUUCUGCUGUAUAUCUC [G6A A28C C50A A64G], 0.14.
As for UAACAAGGGGCCACAGCAGAAGCGUUCACGUCGCGGCCCCUGUCAGAUUCUGGUGAGUCUGCGAAUUCUGCCGUUUAUCUC [G6A A35G A57G U72C A75U], the self-cleavage was found to be 0.3.
For the variant UAACAAGGGGCCACAGCAGAAGCGUCCACGUCGCAGCCCCCGUCAGAUUCUGGUGAAUCUGCGAAUUCUGCGGUAUAUCUC [G6A U26C U41C U72G], the self-cleavage amounted to 0.05.
As to UAACAAGGGGCCACAGCAGAAGCUUUCACGUCGCAGCCCCUGACAGAUUCUGGUUAAUCUGCGAAUUCUGCUGUAUAUCUC [G6A G24U U43A G55U], the self-cleavage was 0.07.
On to UAACAAGGGGCCACAGCAGAAGCGUUCGCGUCGCAGCCCCUGUCAGAUUCUGGUGAUUCUGCGAAUUCUGCUGUAUAUCUC [G6A A28G A57U], for which the self-cleavage was found to be 0.06.
Then UAACAAGGGACCACAGCAGAAGCGCUCACGUCGCAGCCCCUGUCAGAUUCUGGUGAAUCUGCGAAUUCUGCAGUUUAUCUC [G6A G10A U25C U72A A75U], with 0.05; and UAACAAGGGGCCACAGCAGAAGCAUUCACGUCGCAGCCCCUGGCGGAUUCUGGUGAAUCUGCGAAUUCAGCUGUAUACCUC [G6A G24A U43G A45G U69A U78C], with 0.16.
Regarding UAACAAGGGGCCACAGCAGAAGCGUUCACGUCGCAGCCCCUGUCAGGUCCUGGUGAAUCUGCGCAUUCCGCUGUAUAUCUC [G6A A47G U49C A64C U69C], the self-cleavage turned out to be 0.08.
Take UAACAAGGGGCCACAGCAGAAGCGUUCUCGUCGCAGUCCCUGUCAGAUUCAGGUGAAUCUGCGAAUUCUGCUGUAUAUCUC [G6A A28U C37U U51A]: the self-cleavage was found to be 0.07.
For UAACAAGGGGCCACAGCAGAGGCGUUUACGUCGCAGCCCCUGUCUGAUUCUGGUGAAUCUGCGAACUCAGCUGUUUAUCUC [G6A A21G C27U A45U U66C U69A A75U], the self-cleavage stood at 0.03.
In the case of UAACAAGGGGCCACAGCAGAAGCGCUCACGUCGCAGCCCCUGUCAGAUCCUGGUGAAUCUGCGAAUUCUGCUGUAUAUCUC [G6A U25C U49C], the self-cleavage amounted to 0.2.
Then UAACAAGGGGCCACAGCAGAAGCGUUCACGUCGCAGCCCCUGUCAGAUUCUGGUGAAUCUGCGAGUUCUGCUGUACAUCUC [G6A A65G U76C], with 0.05.
Under UAACAAGGGGCCACAGCAGAAGCGUUAACGUCGCGGCCCCUGUCAGAUUCUGGUGAAUCAGCGAAUUCUGCUGUAUAUCCC [G6A C27A A35G U60A U80C] stands 0.18; under UAACAAGGGGACACAGCGGAAGCGUUCACGUCGCAGCCCCAGUCAGAUUCUGGCGAAUCUGCGAAUUCUGCUGUAUAUCUC [G6A C11A A18G U41A U54C], 0.06; under UAACAAGGGACCACAGCAGAAGGGUUCACGUCGCAGCCCCUGUCAGAUUCUGGUGAAUCUGCGAACUCUGCUGUAUAUCUC [G6A G10A C23G U66C], 0.04.
Under UAACAAGGGGCCACAGCAGAAGCGUUCACGUCGCAGCCCCUGUCAGAUUCUGGUGGAUCUGCGAAUUCUGCAGUAUAUCUC [G6A A56G U72A] stands 0.17; under UAACAAGGGGCCACAGCAGAAGCGUCCACGUCGCAGCCCCUGUCAGAUUAUGGCGAAUCUGCGAAUUCUGCGGUAUAUCUC [G6A U26C C50A U54C U72G], 0.2.
